Reference: PubChem BioAssay AID1346428 (National Center for Advancing Translational Sciences (NCATS), 2018)
Screen size: about 48,000 compounds; about 1,200 (2.5%) were called active. Roughly 2% stayed inconclusive and do not appear here.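 The calls were made as follows: active = activation of at least 60% and not above a set upper limit (about 1 call in 100 departs from these limits); inconclusive = activation of 40% to 60%, or above that upper limit; inactive = activation under 40%.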 This is one part of the list.

biological target: Probable G-protein coupled receptor 32 (Homo sapiens) (UniProt O75388); experiment: qHTS for Agonists of Human Resolvin D1 Receptor DRV1; conditions: CHO-K1 GPR32 beta-arrestin PathHunter luminescence, 90 min; at 76.9 µM; hits give high values; zero percent set by DMSO-only wells; also: 0% is about no effect
Outline: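 Agonism was scored as beta-arrestin recruitment to ProLink-fused GPR32 in stably transfected CHO-K1 cells, giving a chemiluminescent beta-Gal signal; compounds were incubated 90 min at 37 °C.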

Chain of UniProt O75388 (O75388 whole entry, looked up, the tested form may be a part): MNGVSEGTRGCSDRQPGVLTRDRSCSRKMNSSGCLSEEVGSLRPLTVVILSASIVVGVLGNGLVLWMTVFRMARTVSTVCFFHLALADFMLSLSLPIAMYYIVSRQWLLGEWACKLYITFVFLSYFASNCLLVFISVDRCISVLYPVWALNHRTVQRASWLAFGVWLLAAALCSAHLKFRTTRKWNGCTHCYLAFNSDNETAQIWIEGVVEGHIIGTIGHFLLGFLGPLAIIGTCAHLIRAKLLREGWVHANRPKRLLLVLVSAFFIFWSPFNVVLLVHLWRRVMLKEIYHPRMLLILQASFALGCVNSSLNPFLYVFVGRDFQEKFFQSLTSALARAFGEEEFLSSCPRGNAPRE

activation, active:
COc1ccc(CCCc2nnc(SCC(=O)Nc3cccc(F)c3C)o2)cc1 65.7%

activation, inactive:
Cc1cccc(OCc2nc(CC(=O)Nc3ccc(Cl)cc3)cs2)c1 15.9%, COc1cccc(CSc2nc3ccncc3n2CC(=O)Nc2ccc(OC)c(OC)c2OC)c1 -20.4%, CCOC(=O)c1cnc2c(ccc3ccccc32)c1Nc1ccc(C(C)=O)cc1 6.55%, COc1ccccc1CNC(=O)Cc1csc2nc(-c3ccc(F)cc3)cn12 -20.4%, CCc1cc2c(cc3c(=O)n(CC(=O)NC(C)c4ccccc4)ncn32)s1 (centres undefined) -12.3%, O=S(=O)(c1ccc(Cl)cc1)c1nc(-c2cccs2)oc1N1CCCCC1 -16.1%, CCOC(=O)c1sc2ccccc2c1S(=O)(=O)NCc1ccccc1OC -16.1%, CCc1ccccc1NC(=O)C1CCN(S(=O)(=O)c2cn(C)cn2)CC1 -6.34%, COc1cccc(NC(=O)CCN2C(=O)c3ccccc3Sc3ncccc32)c1 5.16%, Cc1cc(C)nc(-n2nc(C)c3c2N(Cc2ccccc2F)C(=O)CC3c2ccc(Cl)cc2)n1 (centres undefined) -20.4%, CCOC(=O)C1CCCN(C(=O)c2ccc3c(c2)sc2nc(-c4cccc(OC)c4)cn23)C1 (centres undefined) -8.16%, CCOCCc1nn2c(=O)cc(COC(=O)c3ccccc3OC)nc2s1 -6.63%, COCCCn1c(SCc2cccc(Cl)c2)nc2c(sc3ccccc32)c1=O -0.758%, Cc1ccccc1-c1noc(CSc2nc3ccccc3[nH]2)n1 31.4%, O=C(NCCc1ccccc1)c1cc(Nc2ccccc2)nc2ccccc12 6.91%, CCc1ccccc1Nc1nn2c(=O)c3ccc(C(=O)NCCC4=CCCCC4)cc3nc2s1 -8.63%, Cc1cc(=O)n2nc(N(C)CC(=O)NCc3ccccc3C)sc2n1 0%, CCCC(=O)Nc1cccc(OCc2cc(=O)n3cccc(C)c3n2)c1 -9.1%, CCOCCc1nnc(NC(=O)C(=O)c2cc(C)n(-c3ccc(C)cc3C)c2C)s1 -12.6%, COc1ccc(N(CC(=O)Nc2cccc(Cl)c2)S(=O)(=O)c2c(C)[nH]c(=O)[nH]c2=O)cc1 -9.64%, CCOc1ccc(Nc2nc(-c3cccc(Cl)c3)c3c(n2)-c2ccccc2OC3)cc1 -24.9%, CCn1c(C)c(C)c2cc(C(=O)NCC(C)c3ccccc3)ccc21 (centres undefined) -27.4%, COc1ccc2c(c1)c1c(c(=O)n(Cc3ccccc3)c(=O)n1CC(=O)Nc1ccccc1OC)n2C -76.3%, COc1ccc(N2CCN(CCCNC(=O)C3COc4ccccc4C3)CC2)cc1 (centres undefined) -15.9%, O=C(c1ccc2c(Cl)c3c(nc2c1)CCCC3)N1CCN(c2ccc(Cl)cc2)CC1 -1.96%, O=C(Nc1nc2c(F)cc(F)cc2s1)c1ccc(S(=O)(=O)N2CCc3ccccc32)cc1 -5.96%, C[C@@H](O[C@H]1OCCN(Cc2n[nH]c(=O)[nH]2)[C@H]1c1ccc(F)cc1)c1cc(C(F)(F)F)cc(C(F)(F)F)c1 27.3%, COC(=O)c1ccc(N2C(=O)Cc3cc(OC)c(OC)cc3C2c2ccc(F)cc2)cc1 (centres undefined) 15.8%, Oc1cccc(O)c1 -2.17%, CCN1C(C(=O)c2ccccc2)=C(OC(=O)COc2ccc(C)cc2)c2ccccc2S1(=O)=O -63.2%, Cc1ccc(CNC(=O)CSc2nc3c(sc4ccccc43)c(=O)n2CCCC(=O)NCCO)cc1 -1.1%, O=C(Nc1ccc(F)cc1)Nc1csc2c1CCCC2 7.02%, CCOc1ccc(-n2c(=O)c3c4c(sc3n(CC(=O)NC(C)CC)c2=O)CCCCC4)cc1 (centres undefined) -2.85%, C[C@@H]1CCC[C@H](C)N1 -12.7%, CCOc1ccc2nc(NC(=O)c3nc(SCc4ccccc4F)ncc3Cl)sc2c1 1.69%, Cc1cc(C)cc(-n2c(SCC(=O)Nc3ccccc3)nc3c(oc4ccccc43)c2=O)c1 -27.9%, Cc1ccc(-n2nc3c(=O)n(C(C)C(=O)NCc4ccc(OC(C)C)cc4)nc(C)c3c2C)cc1 (centres undefined) -2.29%, CCC(Cc1ccccc1)NC(=O)Cn1nc(C)n2c(cc3occc32)c1=O (centres undefined) -9.46%, O=C(NCc1ccc(Cl)cc1)C1CCN(S(=O)(=O)c2cccc3nonc23)CC1 -9.96%, CCCCn1c(=O)n(CC2CCC(C(=O)NCCCOC)CC2)c(=O)c2sccc21 (centres undefined) 1.36%, COc1cc(OC)cc(-c2nc3nc(C)c(CCC(=O)Nc4cc(C)cc(C)c4)c(C)n3n2)c1 -1.77%, CC(C)Cn1cc(NC(=O)N2CCN(c3ccc(F)cc3)CC2)c2ccccc2c1=O -20%, CC(=O)c1ccc(NC(=O)CSC2=Nc3ccccc3N=C(c3ccc(F)cc3)C2)cc1 -16.3%, Cc1cc(=O)[nH]c2nnc(SCc3ccc(Cl)cc3Cl)n12 6.18%, CC(=O)c1cccc(NC(=O)c2sc(-n3nc(C)c(Cc4ccccc4)c3C)nc2C)c1 6.88%, CCCS(=O)(=O)N1CC(=O)N(c2cccc(Cl)c2)C(C)(C(=O)NC2CCCCC2)C1 (centres undefined) -14.2%, COc1cccc(-c2cc(C(=O)NCCc3ccc(OC)c(OC)c3)no2)c1 7.65%, O=C(Cn1c(SCc2ccc(F)cc2)nc2cccnc21)Nc1ccccc1F -3.42%, COCCNC(=O)c1ccc2c(c1)N(Cc1cc(C)ccc1C)C(=O)c1ccccc1S2=O (centres undefined) -34.2%, Cc1ccc2nc(COc3cccc(NC(=O)Nc4ccc(C)c(Cl)c4)c3)cc(=O)n2c1 0.816%, Cc1ccc2c(CNC3CCCCC3)c(C(=O)O)n(Cc3ccc(F)cc3)c2c1 13.5%, COc1cccc2cc(-c3nc(-c4ccccc4F)no3)c(=O)oc12 -0.534%, CCOc1ccccc1CNC(=O)c1cc2c(=O)n(Cc3cccnc3)ccc2nc1C -11.8%, O=C(Nc1ccc(F)c(Cl)c1)c1ccc2c(Cl)c3c(nc2c1)CCCC3 14.6%, CCC(=O)N1CCc2cc(Br)cc(S(=O)(=O)NCCc3cccc(C)c3)c21 -2.52%, O=C(O)c1cc(=O)c2c(Cl)cc(Cl)cc2[nH]1 4.79%, Cc1cccc(C(=O)Nc2cc3c(cc2C)n(C)c(=O)n3C)c1 -9.2%, Cc1cc(C)c2nc(C)cc(Nc3cccc(C(=O)O)c3)c2c1 -10.9%, CCOc1cc(C(=O)Nc2cc3c(cc2N2CCCC2)n(C)c(=O)c(=O)n3C)cc(OCC)c1OCC 26.2%, Cc1nnc(N2CCN(C(=O)NCCC(C)C)CC2)c2nn(-c3ccc(Cl)cc3)c(C)c12 -8.95%, CCc1ccc(S(=O)(=O)Nc2cccc(-c3ccc(N4CCCCC4)nn3)c2)s1 -7.99%, O=C1C(c2ccc(F)cc2)N(CCc2ccc(Cl)cc2)C(=O)CN1C1CCCCC1 (centres undefined) -17.3%, O=C(Nc1sc2c(c1C(=O)NCc1ccco1)CCCC2)c1cc(=O)c2cc(Cl)ccc2o1 5.96%, COc1ccc(NC(=O)Nc2cc(-c3cn4cccnc4n3)ccc2C)cc1 18.2%, O=C(NC1CCN(Cc2ccccc2)CC1)c1ccc(Cn2c(=O)c3ccccc3n(Cc3ccc(Cl)cc3)c2=O)cc1 5.22%, CC(=O)N1CCc2c(sc3c2c(=O)n(-c2ccccc2)c(=O)n3CC(=O)c2ccccc2)C1 2.42%, COc1ccccc1NC(=O)Cn1c(C)cc(C)c(C#N)c1=O 7.07%, O=C(CCCCn1c(=O)c2ccccc2n(Cc2cccc(F)c2)c1=O)NCCc1ccccc1 -5.68%, Cc1ccc(C)c(NC(=O)CN2C(=O)CCc3cc(S(=O)(=O)N4CCCCC4)ccc32)c1 -5.72%, CC(=O)N1CCC(N(Cc2ccc(C)o2)C(=O)Nc2cccc(C(F)(F)F)c2)CC1 23.3%, Cc1ccc2c(c1)-c1nc(-c3ccc4c(c3)NC(=O)CO4)cc(-c3ccccc3)c1CO2 -1.65%, NS(=O)(=O)c1cc2c(cc1Cl)CN(C1CCCCC1)C2=O -29.8%, Cc1ccc(Cn2c(=O)n(Cc3ccccc3)c(=O)c3oc4ccccc4c32)cc1 -8.89%, CC(=O)Nc1ccc(NC(=O)c2ccc3c(c2)N(Cc2cccc(Cl)c2)C(=O)c2ccccc2S3=O)cc1 (centres undefined) -16%, COCc1nc2ccccc2n1Cc1ccc(C(C)(C)C)cc1 -3.84%, CC(=O)N1CCc2cc(S(=O)(=O)NC(Cc3ccccc3)C(=O)NCc3ccccc3)ccc21 (centres undefined) 6.79%, O=C(CC1N=C2c3ccccc3N=C(SCc3ccc(F)cc3)N2C1=O)NCCc1ccccc1 (centres undefined) -16%, Cc1cccc(Cn2c(-c3ccccc3)nc3ccccc32)c1 -82.2%, O=C(CSc1nccn1-c1ccc(F)cc1)Nc1nc2ccccc2s1 -10.7%, COc1ccc2[nH]c3c(c2c1)CCN(C(=O)CCC1CCCC1)C3c1ccc(F)cc1 (centres undefined) -38.9%, CC(C)(C)OC(=O)N1CCC(c2c(C(=O)N3CCN(c4ccccn4)CC3)cnn2-c2ccc(F)cc2F)CC1 -7.54%, Cc1ccc(-c2cnc(C3CC3)o2)cc1S(=O)(=O)Nc1cccc(C)c1C -1.75%, CC(C)(C)c1ccc(C(=O)NCC(=O)OCc2cc(=O)n3nc(C4CC4)sc3n2)cc1 -14%
